# This is one part of the list.
# Legend:
# Assay in all cases: glycan array binding signal (z-score within array); higher = stronger binding
# Details in all cases: glycan notation: IUPAC condensed, linker removed
# [1] = biological target: Neu5Ac(a2-6)Gal(b1-4)GlcNAc(b1-2)Man(a1-3)[Neu5Ac(a2-6)Gal(b1-4)GlcNAc(b1-2)Man(a1-6)]Man(b1-4)GlcNAc(b1-4)[Fuc(a1-6)]GlcNAc
# Outline: (§1)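 Arrays were curated from the Consortium for Functional Glycomics database, 3228 in total, and kept only where the protein sequence was available. Binding is expressed as a within-array Z-score. This score was averaged across arrays of the same protein sequence at different concentrations or buffers and across linkers, and negative values can be read as non-binding.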
# [2] = biological target: Neu5Ac(a2-6)Gal(b1-4)GlcNAc(b1-2)Man(a1-6)Man(b1-4)GlcNAc(b1-4)GlcNAc
# Outline: as §1
# [3] = biological target: Neu5Ac(a2-6)Gal(b1-4)GlcNAc(b1-2)Man(a1-6)[Gal(b1-4)GlcNAc(b1-2)Man(a1-3)]Man(b1-4)GlcNAc(b1-4)GlcNAc
# Outline: as §1
# [4] = biological target: Neu5Ac(a2-6)Gal(b1-4)GlcNAc(b1-2)Man(a1-6)[GlcNAc(b1-2)Man(a1-3)]Man(b1-4)GlcNAc(b1-4)GlcNAc
# Outline: as §1
# [5] = biological target: Neu5Ac(a2-6)Gal(b1-4)GlcNAc(b1-2)Man(a1-6)[Man(a1-3)]Man(b1-4)GlcNAc(b1-4)GlcNAc
# Outline: as §1
# [6] = biological target: Neu5Ac(a2-6)Gal(b1-4)GlcNAc(b1-2)[Neu5Ac(a2-6)Gal(b1-4)GlcNAc(b1-4)]Man(a1-3)[GlcNAc(b1-4)][Neu5Ac(a2-6)Gal(b1-4)GlcNAc(b1-2)[Neu5Ac(a2-6)Gal(b1-4)GlcNAc(b1-6)]Man(a1-6)]Man(b1-4)GlcNAc(b1-4)GlcNAc
# Outline: as §1
# [7] = biological target: Neu5Ac(a2-6)Gal(b1-4)GlcNAc(b1-2)[Neu5Ac(a2-6)Gal(b1-4)GlcNAc(b1-4)]Man(a1-3)[GlcNAc(b1-4)][Neu5Ac(a2-6)Gal(b1-4)GlcNAc(b1-4)Man(a1-6)]Man(b1-4)GlcNAc(b1-4)GlcNAc
# Outline: as §1
# [8] = biological target: Neu5Ac(a2-6)Gal(b1-4)GlcNAc(b1-2)[Neu5Ac(a2-6)Gal(b1-4)GlcNAc(b1-6)]Man(a1-6)[Neu5Ac(a2-6)Gal(b1-4)GlcNAc(b1-2)Man(a1-3)][GlcNAc(b1-4)]Man(b1-4)GlcNAc(b1-4)GlcNAc
# Outline: as §1
# [9] = biological target: Neu5Ac(a2-6)Gal(b1-4)GlcNAc(b1-3)Gal(b1-3)GlcNAc
# Outline: as §1
# [10] = biological target: Neu5Ac(a2-6)Gal(b1-4)GlcNAc(b1-3)Gal(b1-4)GlcNAc
# Outline: as §1
# [11] = biological target: Neu5Ac(a2-6)Gal(b1-4)GlcNAc(b1-3)Gal(b1-4)GlcNAc(b1-2)Man(a1-3)[Neu5Ac(a2-6)Gal(b1-4)GlcNAc(b1-3)Gal(b1-4)GlcNAc(b1-2)Man(a1-6)]GalNAc
# Outline: as §1
# [12] = biological target: Neu5Ac(a2-6)Gal(b1-4)GlcNAc(b1-3)Gal(b1-4)GlcNAc(b1-3)Gal(b1-4)GlcNAc
# Outline: as §1
# [13] = biological target: Neu5Ac(a2-6)Gal(b1-4)GlcNAc(b1-3)Gal(b1-4)GlcNAc(b1-3)Gal(b1-4)GlcNAc(b1-2)Man(a1-3)[Neu5Ac(a2-6)Gal(b1-4)GlcNAc(b1-3)Gal(b1-4)GlcNAc(b1-3)Gal(b1-4)GlcNAc(b1-2)Man(a1-6)]GalNAc
# Outline: as §1
# [14] = biological target: Neu5Ac(a2-6)Gal(b1-4)GlcNAc(b1-3)Gal(b1-4)GlcNAc(b1-3)GalNAc
# Outline: as §1
# [15] = biological target: Neu5Ac(a2-6)Gal(b1-4)GlcNAc(b1-3)Gal(b1-4)GlcNAc(b1-3)[Neu5Ac(a2-6)Gal(b1-4)GlcNAc(b1-3)Gal(b1-4)GlcNAc(b1-6)]GalNAc
# Outline: as §1
# [16] = biological target: Neu5Ac(a2-6)Gal(b1-4)GlcNAc(b1-3)Gal(b1-4)GlcNAc(b1-6)[Gal(b1-3)]GalNAc
# Outline: as §1
# [17] = biological target: Neu5Ac(a2-6)Gal(b1-4)GlcNAc(b1-3)Gal(b1-4)[Fuc(a1-3)]GlcNAc(b1-3)Gal(b1-4)[Fuc(a1-3)]GlcNAc
# Outline: as §1
# [18] = biological target: Neu5Ac(a2-6)Gal(b1-4)GlcNAc(b1-3)GalNAc
# Outline: as §1
# [19] = biological target: Neu5Ac(a2-6)Gal(b1-4)GlcNAc(b1-3)[Neu5Ac(a2-6)Gal(b1-4)GlcNAc(b1-6)]GalNAc
# Outline: as §1
# [20] = biological target: Neu5Ac(a2-6)Gal(b1-4)GlcNAc(b1-6)GalNAc
# Outline: as §1
# [21] = biological target: Neu5Ac(a2-6)Gal(b1-4)GlcNAc(b1-6)[Gal(b1-3)GlcNAc(b1-3)]Gal(b1-4)Glc
# Outline: as §1
# [22] = biological target: Neu5Ac(a2-6)Gal(b1-4)GlcNAc(b1-6)[Gal(b1-3)]GalNAc
# Outline: as §1
# [23] = biological target: Neu5Ac(a2-6)Gal(b1-4)GlcNAc6S
# Outline: as §1
# Neu5Ac(a2-6)GalNAc = biological target: Neu5Ac(a2-6)GalNAc
# Outline: as §1
# [24] = biological target: Neu5Ac(a2-6)GalNAc(b1-4)GlcNAc
# Outline: as §1
# [25] = biological target: Neu5Ac(a2-6)GalNAc(b1-4)GlcNAc6S
# Outline: as §1
# [26] = biological target: Neu5Ac(a2-6)GlcNAc(b1-4)GlcNAc
# Outline: as §1
# [27] = biological target: Neu5Ac(a2-6)GlcNAc(b1-4)GlcNAc(b1-4)GlcNAc
# Outline: as §1
# Neu5Ac(a2-8)Neu5Ac = biological target: Neu5Ac(a2-8)Neu5Ac
# Outline: as §1
# [28] = biological target: Neu5Ac(a2-8)Neu5Ac(a2-3)Gal(b1-3)GalNAc(b1-4)[Neu5Ac(a2-3)]Gal(b1-4)Glc
# Outline: as §1
# [29] = biological target: Neu5Ac(a2-8)Neu5Ac(a2-3)Gal(b1-3)GalNAc(b1-4)[Neu5Ac(a2-8)Neu5Ac(a2-3)]Gal(b1-4)Glc
# Outline: as §1
# [30] = biological target: Neu5Ac(a2-8)Neu5Ac(a2-3)Gal(b1-4)Glc
# Outline: as §1
# [31] = biological target: Neu5Ac(a2-8)Neu5Ac(a2-3)Gal(b1-4)GlcNAc
# Outline: as §1
# [32] = biological target: Neu5Ac(a2-8)Neu5Ac(a2-3)[Gal(b1-3)GalNAc(b1-4)]Gal(b1-4)Glc
# Outline: as §1
# [33] = biological target: Neu5Ac(a2-8)Neu5Ac(a2-3)[GalNAc(b1-4)]Gal(b1-4)Glc
# Outline: as §1
# [34] = biological target: Neu5Ac(a2-8)Neu5Ac(a2-8)Neu5Ac
# Outline: as §1
# [35] = biological target: Neu5Ac(a2-8)Neu5Ac(a2-8)Neu5Ac(a2-3)Gal(b1-4)Glc
# Outline: as §1
# [36] = biological target: Neu5Ac(a2-8)Neu5Ac(a2-8)Neu5Ac(a2-3)[Gal(b1-3)GalNAc(b1-4)]Gal(b1-4)Glc
# Outline: as §1
# [37] = biological target: Neu5Ac(a2-8)Neu5Ac(a2-8)Neu5Ac(a2-3)[GalNAc(b1-4)]Gal(b1-4)Glc
# Outline: as §1
# [38] = biological target: Neu5Ac(a2-8)Neu5Ac(a2-8)Neu5Ac(a2-8)Neu5Ac(a2-3)[GalNAc(b1-4)]Gal(b1-4)Glc
# Outline: as §1
# [39] = biological target: Neu5Ac(a2-8)Neu5Gc(a2-3)Gal(b1-4)GlcNAc
# Outline: as §1
# Neu5Ac(b1-6)GalNAc = biological target: Neu5Ac(b1-6)GalNAc
# Outline: as §1
# [40] = biological target: Neu5Ac(b2-6)Gal(b1-4)GlcNAc
# Outline: as §1
# Neu5Ac(b2-6)GalNAc = biological target: Neu5Ac(b2-6)GalNAc
# Outline: as §1
# [41] = biological target: Neu5Ac9Ac(a2-3)Gal(b1-3)GlcNAc
# Outline: as §1
binder,measurement,setting,value
"BDCA-2 (Homo sapiens), Q8WTT0 (protein) MVPEEEPQDREKGLWWFQLKVWSMAVVSILLLSVCFTVSSVVPHNFMYSKTVKRLSKLREYQQYHPSLTCVMEGKDIEDWSCCPTPWTSFQSSCYFISTGMQSWTKSQKNCSVMGADLVVINTREEQDFIIQNLKRNSSYFLGLSDPGGRRHWQWVDQTPYNENVTFWHSGEPNNLDERCAIINFRSSEEWGWNDIHCHVPQKSICKMKKIYI",glycan array binding signal (z-score),[1],-0.158
same,glycan array binding signal (z-score),[2],-0.16
same,glycan array binding signal (z-score),[3],11.8
same,glycan array binding signal (z-score),[4],-0.009
same,glycan array binding signal (z-score),[5],-0.146
same,glycan array binding signal (z-score),[6],-0.166
same,glycan array binding signal (z-score),[7],-0.116
same,glycan array binding signal (z-score),[8],-0.174
same,glycan array binding signal (z-score),[9],-0.164
same,glycan array binding signal (z-score),[10],-0.203
same,glycan array binding signal (z-score),[11],-0.174
same,glycan array binding signal (z-score),[12],-0.186
same,glycan array binding signal (z-score),[13],-0.155
same,glycan array binding signal (z-score),[14],-0.17
same,glycan array binding signal (z-score),[15],-0.113
same,glycan array binding signal (z-score),[16],-0.149
same,glycan array binding signal (z-score),[17],-0.22
same,glycan array binding signal (z-score),[18],-0.155
same,glycan array binding signal (z-score),[19],-0.167
same,glycan array binding signal (z-score),[20],-0.084
same,glycan array binding signal (z-score),[21],-0.165
same,glycan array binding signal (z-score),[22],-0.164
same,glycan array binding signal (z-score),[23],-0.042
same,glycan array binding signal (z-score),Neu5Ac(a2-6)GalNAc,-0.305
same,glycan array binding signal (z-score),[24],-0.181
same,glycan array binding signal (z-score),[25],-0.184
same,glycan array binding signal (z-score),[26],-0.186
same,glycan array binding signal (z-score),[27],-0.178
same,glycan array binding signal (z-score),Neu5Ac(a2-8)Neu5Ac,-0.243
same,glycan array binding signal (z-score),[28],-0.178
same,glycan array binding signal (z-score),[29],1.5
same,glycan array binding signal (z-score),[30],-0.258
same,glycan array binding signal (z-score),[31],-0.192
same,glycan array binding signal (z-score),[32],-0.129
same,glycan array binding signal (z-score),[33],-0.216
same,glycan array binding signal (z-score),[34],-0.285
same,glycan array binding signal (z-score),[35],-0.34
same,glycan array binding signal (z-score),[36],-0.179
same,glycan array binding signal (z-score),[37],-0.091
same,glycan array binding signal (z-score),[38],-0.318
same,glycan array binding signal (z-score),[39],-0.182
same,glycan array binding signal (z-score),Neu5Ac(b1-6)GalNAc,-0.132
same,glycan array binding signal (z-score),[40],-0.274
same,glycan array binding signal (z-score),Neu5Ac(b2-6)GalNAc,-0.173
same,glycan array binding signal (z-score),[41],-0.17

# Source: the supplement of paper PMC8728848
